In PubChem BioAssay AID1963576 (National Center for Advancing Translational Sciences (NCATS), 2024):
Out of some 46,000 compounds screened, about 60 (0.1%) were called active. Not shown: some 3% with an inconclusive outcome. Calls come from the whole dose curve; as a rule, active = well fitted inhibition curve with a large enough effect; inconclusive = small, poorly fitted or top-dose-only effect; inactive = no such curve, though single readings can be large or run the other way. The list shows a part of the results.

Experiment: Primary qHTS assay for Inhibitors of ovarian cancer metastasis using an organotypic tumor microenvironment (TME) model.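 For activity change, negative = inhibition: plate controls were DMSO wells for no effect and tomatine positive control wells for full effect.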 Note: nearly all actives have a fitted effect of over 65% in size.
Details: SKOV3ip1-GFP adhesion/invasion on 3D omental model, fluorescence; series mostly up to 45.8 µM; activity change, negative = inhibition: at the top concentration
In short: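 qHTS, 4-pt dose (0.36-46 umol/L); SKOV3ip1-GFP, 1,200 cells/well, no FBS; primary omental fibroblast/mesothelial co-culture 48 h pre-grown; 2 h RT + 16 h 37 C; PBS wash, 4% PFA; GFP count 488/509 nm.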

Activity change, negative = inhibition, inactive:
COC(=O)Cn1c(=O)c2cccn2c2cccnc21 0.0488%, COc1ccccc1CNc1ccc(-c2nc(-c3ccco3)no2)cc1[N+](=O)[O-] -14.1%, Cc1cccc2c(=O)cc(CSc3ccccc3NC(=O)c3cccc(F)c3)[nH]c12 6.08%, CCOc1ccccc1NC(=O)Cn1cc(C(=O)c2ccc(Cl)cc2)c(=O)c2ccc(C)nc21 0.0812%, CN(C)CCCN(C(=O)c1ccc2c(c1)OCCO2)c1nc2ccccc2s1 -6.58%, Cc1cc2nn(-c3ccc(F)cc3)nc2cc1NC(=O)c1cccc2ccccc12 -4.51%, O=C(Nc1nnc(S(=O)(=O)N2CCOCC2)s1)c1ccccc1Cl -9.54%, CCCC(=O)n1nc(-c2ccco2)nc1NCc1ccccc1Cl 1.23%, Cc1ccc(OCC(=O)Nc2ccc3c(c2)nc(CCNC(=O)c2ccco2)n3C)cc1 2.49%, COc1ccc(N2CCN(C(=O)CN3C(=O)CSc4c3c(C)nn4-c3ccccc3)CC2)cc1 4.1%, O=C(Nc1ccc2nc(SCc3ccccc3)sc2c1)c1ccccc1F -4.29%, O=C(Nc1ccc(F)c(Cl)c1)c1cc(S(=O)(=O)N2CCc3ccccc3C2)ccc1F -6.05%, CCn1c(=O)c(=O)n(CC)c2cc(N3CCCCC3)c(NC(=O)c3ccc(Cl)cc3)cc21 -2.3%, COc1ccc(CNC(=O)CN2N=C(c3ccccc3)CCC2=O)c(OC)c1 -7.66%, Cc1ccccc1N1CC(C(=O)Nc2ccc(Br)cc2)CC1=O (configuration not stated) 3.13%, COCCCNc1nc2cc(OC)c(OC)cc2c2nc(-c3ccccc3)nn12 0.523%, O=C(CSc1n[nH]c(-c2ccccc2)n1)NCCCc1ccccc1 8.99%, COc1ccc(C(=O)NCc2nnc(SCC(=O)Nc3ccccc3)n2-c2ccccc2)cc1 3.28%, Cc1nnc(N2CCCC(C(=O)NCc3ccccc3F)C2)c2nn(-c3ccc(Cl)cc3)c(C)c12 (configuration not stated) 2.44%, COc1ccc(NC(=O)CSc2ncccc2C(=O)O)cc1OC 1.82%, COc1ccc(NC(=O)CCSc2nc(-c3ccco3)cc(C(F)(F)F)n2)cc1 -10.7%, Cc1ccc(C)c(Nc2ncnc3onc(C)c23)c1 -2.99%, O=C(Cn1c(=O)c2ccccc2n(CC(=O)Nc2ccc(F)cc2F)c1=O)NCCc1ccccc1 14.7%, COc1ccc(-c2nc3cc(C(C)C)ccc3o2)cc1NC(=O)COc1ccc(C)cc1C 1.62%, CCN(CC)CCNC(=O)c1ccc2c(c1)NC(=O)C(CS(=O)(=O)Cc1cccc(Br)c1)N2 (configuration not stated) -4.57%, CCc1ccc(OCCCn2c(-c3ccc(Cl)cc3)nc3ccccc3c2=O)cc1 -0.49%, CCN(CC)c1ccc(CN(C(=O)Cc2coc3ccc(C)cc23)C2CCS(=O)(=O)C2)cc1 (configuration not stated) -7.12%, CCOc1cccc(CC(=O)N2CCc3c([nH]c4ccccc34)C2c2ccccc2)c1OCC (configuration not stated) -4.44%, CCn1nc(C)c2c(-c3ccccc3)cc(=O)n(C(C)C(=O)NCc3cccc(OC)c3)c21 (configuration not stated) 6.25%, CCOc1ccccc1CNCc1c(C(=O)O)c(C)n(Cc2ccc(Cl)cc2)c1C 17.5%, CCN(Cc1ccccc1)Cc1c(O)ccc2c(=O)c(-c3ccccc3)c(C(F)(F)F)oc12 1.39%, COc1ccc(C(=O)Nc2cc(C(C)C)c(O)c(S(=O)(=O)c3ccc(Cl)cc3)c2C)cc1 1.41%, O=C(c1[nH]c2ccccc2c1Sc1ccc(Cl)cc1)N1CCCCC1 -12.3%, Cc1ccc(OCC(=O)OCc2cc(=O)n3nc(C4CCCCC4)sc3n2)cc1C -3.7%, CCC1CN(C(=O)N2CCC(C(=O)NCCc3ccccc3C)CC2)c2ccccc2O1 (configuration not stated) -9.55%, c1ccc(-c2nnc(CN3CCN(c4ccccn4)CC3)o2)cc1 3.55%, CCN(CC)c1ccc(NC(=O)c2cc(C)nc3c2c(C)nn3-c2cccc(F)c2)c(C)c1 3.75%, Cc1ccc(Cl)cc1NC(=O)CSc1ccc(C(=O)O)cn1 -17.6%, CCOc1ccc(-c2cn3c(n2)sc2cc(C(=O)NCCCc4ccccc4)ccc23)cc1 2.46%, O=C(COc1ccc(F)cc1)Nc1ccccc1C(=O)OCc1cc(=O)n2nc(C3CC3)sc2n1 -0.713%, COc1ccc(C(CC(=O)Nc2cccc(C)c2C)N2Cc3ccccc3C2=O)cc1 (configuration not stated) 23.2%, Cc1cccc(-c2cc(NC(=O)C(C)(C)C)n(-c3ccccc3)n2)c1 -0.75%, CCCCN(C)CCCNC(=O)CN1C(=O)COc2ccc(S(=O)(=O)N3CCOCC3)cc21 3.69%, CC(NC(=O)c1ccc(Nc2nc3ccccc3n3nnnc23)cc1)c1ccccc1 (configuration not stated) -19.1%, O=C(CS(=O)(=O)c1cccc2nsnc12)NCc1ccc(Cl)cc1 -1.3%, Cc1cc(C)c(NC(=O)CCCN2C(=O)COc3ccc(C)cc32)c(C)c1 -1.9%, CC(=O)c1ccc(NC(=O)C2CCCN(S(=O)(=O)c3ccc4c(c3)CCCN4C(C)=O)C2)cc1 (configuration not stated) 5.14%

outcome, inactive:
COc1ccc(Cn2c(=O)c3oc4ccccc4c3n(Cc3cccc(C)c3)c2=O)cc1, CC(C)CCNC(=O)c1ccc2c(c1)N(Cc1cccc(Cl)c1)C(=O)c1ccccc1S2, CC(=O)Nc1ccc(NC(=O)C2CCCN2S(=O)(=O)c2ccc3c(c2)CCCC(=O)N3)cc1 (configuration not stated), COc1ccc(OC)c(CCNC(=O)c2cc3c(=O)oc4ccc(C)cc4c3s2)c1, COc1cc(Cl)c(C)cc1NC(=O)c1ccc2c(SCC(=O)O)c3c(nc2c1)CCCC3, Cc1ccc(-n2nnc(-c3nsc(NC(=O)c4cccc(Cl)c4)n3)c2C)cc1C, Cc1ccc(-c2nc3scc(CCNS(=O)(=O)c4ccc(F)c(C)c4)n3n2)cc1, O=C1CC(c2ccccc2)Sc2nc(-c3ccc(F)cc3)nn21 (configuration not stated), O=C(NCCSCc1cccc(Cl)c1)C1CCN(S(=O)(=O)Cc2ccccc2)CC1, Cc1nc2nc(SCc3ccc(F)cc3Cl)nn2c(C)c1Cc1ccccc1, COc1cc(C2c3c(oc4ccccc4c3=O)C(=O)N2c2nncs2)cc(OC)c1OC (configuration not stated), CCC1CN(C(=O)N2CCC(C(=O)Nc3cc(C)ccc3C)CC2)c2ccccc2O1 (configuration not stated), COc1cccc(N2CC(NC(=O)c3ccc4c(c3)OCO4)CC2=O)c1 (configuration not stated), Cc1nc2nc(-c3ccc(Cl)cc3Cl)nn2c(C)c1CCC(=O)Nc1ccc(F)cc1, COc1ccc(-c2c(C)nn3c4c(cnc23)C(=O)CC(c2ccccc2)C4)cc1 (configuration not stated)
